Measurements as given in PubChem BioAssay AID1745845 (National Center for Advancing Translational Sciences (NCATS), 2022).
Several values for one entry are separate records, joined by “and”; a condition that tells them apart may be missing. Equal entries are not always repeated. Screen size: about 360,000 compounds; about 2,600 (0.72%) were called active. This list was built around the results that the source calls inconclusive (neither active nor inactive); the mix of calls is not that of the screen. Calls come from the whole dose curve; as a rule, active = well fitted inhibition curve with a large enough effect; inconclusive = small, poorly fitted or top-dose-only effect; inactive = no such curve, though single readings can be large or run the other way. A potency beside an inconclusive call is a rough fit, not a confirmed value. The source holds several records for some structures; these can differ, active in one and inactive in another.

experiment: Primary qHTS for Inhibitors of ATXN expression; details: HEK-293 ATXN2-luciferase reporter, luminescence, 24 h; series mostly up to 57 µM; note: nearly all actives have a fitted effect of over 55% in size
Method in brief: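 qHTS (up to 57 uM final) was run with 24 h compound exposure of reporter cells at 37 °C. Each well was multiplexed: SteadyGlo luminescence measured ATXN2-luciferase expression after a fluorogenic Gly-Phe-AFC viability readout (25 uM final).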
Potency is the fitted concentration of half-maximal effect; tags give direction and shape of the fitted curve.

| SMILES | Potency |
| --- | --- |
| CO[C@@]12[C@H](COC(N)=O)C3=C(C(=O)C(C)=C(N)C3=O)N1C[C@@H]1N[C@@H]12 | inactive and inconclusive: 794 nM [inhibitor, full curve, poor fit] and active: 1.72 µM |
| CC(C(=O)O)c1ccc(N2Cc3ccccc3C2=O)cc1 (centres undefined) | inconclusive: 14.1 µM [inhibitor, partial curve] |
| Cn1c(=O)oc2cc(S(=O)(=O)NC(Cc3ccccc3)C(=O)Nc3ccc(F)c(Cl)c3)ccc21 (centres undefined) | inactive |
| COc1cccc(-c2cnc3c(NC=O)cc(-c4ccc(N5CCN(C)CC5)cc4)cn23)c1 | inconclusive: 39.8 µM [inhibitor, single point] |
| CC1(C)CC(=O)C2=C(C1)N1C(=C(C#N)C2c2ccc(Cl)cc2)N=C(N)c2ccccc21 (centres undefined) | inconclusive: 31.6 µM [inhibitor, single point] |
| O=C(NCCC1=CCCCC1)C1CCCN(S(=O)(=O)c2cccc3cccnc23)C1 (centres undefined) | inconclusive: 10 µM [inhibitor, partial curve] |
| O=C(CN1CCc2cc3c(cc2C1)OCCCO3)Nc1c(F)cccc1F | inactive |
| COc1ccccc1-c1ccc2c(c1)C(C)(Cc1ccc(F)c(Cl)c1)C(=O)N2 (centres undefined) | inconclusive: 39.8 µM [inhibitor, single point] |
| S=c1nc2ccccc2c2nc(-c3ccccc3Br)[nH]n12 | active: 25.1 µM |
| CC(=C\c1ccccc1)/C=C1/SC(=S)N(CCC(=O)O)C1=O | inconclusive: 7.08 µM [inhibitor, partial curve, poor fit] |
| O=C(NCCC1=CCCCC1)C(=O)NCC(c1ccco1)N1CCN(c2ccccc2F)CC1 (centres undefined) | inconclusive: 39.8 µM [inhibitor, partial curve, poor fit] |
| Cc1cc(Nc2ncnc3ccc(-c4ccc(CNCCS(C)(=O)=O)o4)cc23)ccc1Oc1ccn2ncnc2c1 | inconclusive: 38.5 µM [inhibitor, single point] |
| CN(C)CCNC(=O)c1ccccc1-c1cc2ccccc2c(=O)o1 | inactive |
| O=C(c1ccc(CSc2nc3ccncc3[nH]2)cc1)N1CCN(c2cccc(Cl)c2)CC1 | inconclusive: 22.4 µM [inhibitor, partial curve, poor fit] |
| CC(C)C(=O)Nc1nc2cc3c(cc2s1)OCCO3 | inconclusive: 31.6 µM [inhibitor, single point] |
| CCN(c1ccccc1)c1cc(C)nc2nc(C)nn12 | inactive |
| COc1cnc(-c2ccccc2)nc1OC | inactive |
| CN(C)/C=C/C(=O)c1ccc(N2CCN(c3ncc(C(F)(F)F)cc3Cl)CC2)cc1 | inconclusive: 39.8 µM [inhibitor, single point] |
| O=C(NCCSCc1ccccc1)c1ccccc1 | inactive |
| O=C1Nc2ccc(I)cc2C1=Cc1cc(Br)c(O)c(Br)c1 | inactive |
| COC(=O)c1c(NC(=O)/C=C/C(=O)O)sc(C)c1-c1ccc(C(C)C)cc1 | inconclusive: 33.6 µM [inhibitor, partial curve, poor fit] |
| COc1cccc(/C=N/NC(=O)c2c(C)nc3ccc(Br)cn23)c1O | active: 0.631 µM |

| SMILES | Potency |
| --- | --- |
| Cc1ccc(-c2nnc(N3CCN(S(C)(=O)=O)CC3)c3ccccc23)cc1 | inactive |
| CCN1/C(=C/C=C/c2oc3ccc(-c4ccccc4)cc3[n+]2CC)Oc2ccc(-c3ccccc3)cc21 | active: 9.47 µM |
| Cc1cnc(C(=O)N2CCCC(C(=O)c3ccc(C(C)(C)C)cc3)C2)cn1 (centres undefined) | inactive |
| CCOC(=O)c1ccc(N2C(=O)c3n[nH]c(-c4ccco4)c3C2c2ccccc2OC)cc1 (centres undefined) | inconclusive: 35.5 µM [inhibitor, single point] |
| COc1c(C)cc(Br)cc1C(=O)NC(=S)NCc1ccco1 | inactive |
| Oc1ccc(N2CCN(c3nnnn3-c3ccccc3)CC2)cc1 | inconclusive: 37.7 µM [inhibitor, partial curve, poor fit] |
| COc1ccc(/C=C/C(=O)NCc2cnn(C)c2C)cc1COc1ccc(Br)cc1 | inconclusive: 31.6 µM [inhibitor, partial curve, poor fit] |
| CN(CC(=O)Nc1cc(Cl)cc(Cl)c1)Cc1cccs1 | inactive |
| COc1cccc(NC(=O)Cn2c(=O)n(CCC(=O)NCc3ccccc3OC)c(=O)c3ccccc32)c1 | inconclusive: 39.8 µM [inhibitor, single point] |
| CCN(CC)CCOC(=O)c1ccc(NC(=O)CCCN2C(=O)/C(=C/c3cccs3)SC2=S)cc1 | inconclusive: 39.8 µM [inhibitor, single point] |
| O=C(c1ccc(NC(=S)NCc2ccco2)cc1)N1CCCCC1 | inactive |
| N#Cc1nc(Nc2cc(F)cc(F)c2)c2ncn(CC(F)F)c2n1 | inactive |
| COc1cccc(C(=O)NCCS(=O)(=O)NCc2ccc(Cl)cc2)c1 | inactive |
| O=C(NC1CCCC1)C(c1ccc(Cl)cc1)N(Cc1ccc(F)cc1)C(=O)CCl (centres undefined) | inconclusive: 31.6 µM [inhibitor, single point] |
| CCOc1ccc2c(c1)c(=O)c(C(=O)c1ccc(CC)cc1)cn2CC(=O)Nc1ccc2c(c1)OCCO2 | inactive |
| CCOc1ccccc1NC(=O)Cn1c(=O)oc2ccccc21 | inconclusive: 2.38 µM [inhibitor, partial curve, poor fit] |
| CC(=O)Oc1c(I)cc(I)cc1C(=O)Nc1ccc(Cl)cc1 | inconclusive: 20 µM [inhibitor, partial curve, poor fit] |
| Fc1cccc(CN2CCc3nc(Nc4ccc5c(c4)OCCO5)ncc3C2)c1F | inconclusive: 39.8 µM [inhibitor, single point] |
| Cc1ccccc1S(=O)Cc1ccc(C(=O)NCc2ccccc2Cl)o1 (centres undefined) | inconclusive: 39.8 µM [inhibitor, single point] |
| Cc1c(CCC(=O)O)c(=O)oc2cc3oc4c(c3cc12)CCCC4 | inconclusive: 0.562 µM [inhibitor, full curve] |
| Clc1ccc2nc(-c3ccccc3)cn2c1 | inactive |
| CC(C)(C)C(=O)Nc1sc2c(c1-c1nc3ccccc3[nH]1)CCCC2 | inactive |
